In PubChem BioAssay (Tox21):
“And” between values parts separate entries of the source, which are not always exact repeats. Identical values can stand only once. The inconclusive results got no clear call from the source; some entries with a clear call stand among them for comparison. A potency beside an inconclusive call is a rough fit, not a confirmed value. The source holds several records for some structures; these can differ, active in one and inactive in another. The source made the active and inactive calls. Calls follow the shape of the dose curve; as a rule, active = well fitted inhibition curve with a large enough effect in the repeat runs; inconclusive = weak or mixed curves; inactive = flat fitted curve, though single readings scatter.

Biological target: Luciferin 4-monooxygenase (Photinus pyralis) (UniProt P08659)
Chain of UniProt P08659 (P08659 whole entry, looked up): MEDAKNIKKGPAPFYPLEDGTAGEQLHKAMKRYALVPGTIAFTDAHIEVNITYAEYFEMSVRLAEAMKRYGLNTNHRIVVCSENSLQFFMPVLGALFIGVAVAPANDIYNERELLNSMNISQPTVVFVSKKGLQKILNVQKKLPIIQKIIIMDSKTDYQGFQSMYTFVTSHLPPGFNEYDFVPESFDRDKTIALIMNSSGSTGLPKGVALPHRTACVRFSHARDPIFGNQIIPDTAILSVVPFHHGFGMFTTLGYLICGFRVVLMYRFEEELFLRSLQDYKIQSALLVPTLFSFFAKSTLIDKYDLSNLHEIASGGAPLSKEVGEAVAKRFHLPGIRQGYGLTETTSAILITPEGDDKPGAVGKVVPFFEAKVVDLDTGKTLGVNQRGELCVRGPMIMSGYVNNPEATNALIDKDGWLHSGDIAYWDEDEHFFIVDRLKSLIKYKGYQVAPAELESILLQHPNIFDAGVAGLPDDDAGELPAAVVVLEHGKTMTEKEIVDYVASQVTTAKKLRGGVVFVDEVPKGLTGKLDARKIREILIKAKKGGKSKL
Assay: qHTS assay to identify small molecule inhibitors of firefly luciferase (AID 1224835); also: nearly all actives have a fitted effect of over 25% in size
Conditions: purified P. pyralis luciferase, luminescence inhibition; series mostly up to 115 µM
Summary of the method: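 Quantitative HTS format; KM concentrations of both substrates. Purified P. pyralis FLuc activity quantified from luminescence images.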
Potency is read from the fitted curve at half-maximal effect; tags tell the direction and shape of the fitted curve.

| SMILES | Potency |
| --- | --- |
| COP(=S)(OC)Oc1ccc([N+](=O)[O-])c(C)c1 | inconclusive: 79.6 µM [inhibitor, partial curve] |
| Oc1c(Cl)c(Cl)c(Cl)c(Cl)c1Cl | inconclusive: 89.4 µM [inhibitor, single point] |
| O=C(Nc1ccccc1)Nc1cnns1 | inconclusive: 44.8 µM [inhibitor, partial curve] |
| Cn1cc(-c2ccccc2)c(=O)c(-c2cccc(C(F)(F)F)c2)c1 | inconclusive: 69.3 µM [inhibitor, partial curve, poor fit] |
| CCOP(=S)(OCC)Oc1ccc2c(C)c(Cl)c(=O)oc2c1 | active: 15.5 µM |
| Nc1ccc(Br)cc1 | inactive |
| CC(=O)/C=C/c1ccc2c(c1)OCO2 | active: 45 µM |
| COc1cccc2c1C(=O)c1c(O)c3c(c(O)c1C2=O)C[C@@](O)(C(=O)CO)CC3OC1CC(N2CCOC(OC)C2)C(O)C(C)O1 (stereo partly drawn) | inconclusive: 19.5 µM [inhibitor, partial curve] |
| C/C(=C\c1ccccc1)[N+](=O)[O-] | inconclusive: 39.9 µM [inhibitor, partial curve] |
| Cn1c(N)nc2c3cccnc3ccc21 | inconclusive: 67.5 µM [inhibitor, partial curve] |
| CCN(CC)C(=S)[S-].CCN(CC)C(=S)[S-].[Zn+2] | active: 35.3 µM |
| CCC(C)Nc1c([N+](=O)[O-])cc(C(C)(C)C)cc1[N+](=O)[O-] (stereo not drawn) | active: 71 µM |
| Oc1ccccc1-c1ccccc1 | inconclusive: 71 µM [inhibitor, partial curve] and inconclusive: 50.2 µM [inhibitor, partial curve] and inconclusive: 72.7 µM [inhibitor, partial curve] |
